Sequences and labels used below:
B1: GGACUAA (DNA:RNA)
RNA: GGGAGACCGGAAUUCAGAUUGUCCGGACUAAUUAAAUCCCGUCGUAGCCACCA
DNA 1: CAATCTGAATTCCGGTCTCCC
DNA 2: TGGTGGCTACGACGGGATT
B2: CCAUGCC (DNA:RNA)
RNA: B1 RNA with G25C, G26C, C28U, U29G, A30C, A31C
DNA 1: CAATCTGAATTCCGGTCTCCC
DNA 2: TGGTGGCTACGACGGGATT
B3: GUAUGUG (DNA:RNA)
RNA: B1 RNA with G26U, C28U, U29G, A30U, A31G
DNA 1: CAATCTGAATTCCGGTCTCCC
DNA 2: TGGTGGCTACGACGGGATT
B4: ACUCCCG (DNA:RNA)
RNA: B1 RNA with G25A, G26C, A27U, U29C, A30C, A31G
DNA 1: CAATCTGAATTCCGGTCTCCC
DNA 2: TGGTGGCTACGACGGGATT
B5: CUUCAGC (DNA:RNA)
RNA: B1 RNA with G25C, G26U, A27U, U29A, A30G, A31C
DNA 1: CAATCTGAATTCCGGTCTCCC
DNA 2: TGGTGGCTACGACGGGATT
B6: GUCUGAU (DNA:RNA)
RNA: B1 RNA with G26U, A27C, C28U, U29G, A31U
DNA 1: CAATCTGAATTCCGGTCTCCC
DNA 2: TGGTGGCTACGACGGGATT
B7: AACAAGA (DNA:RNA)
RNA: B1 RNA with G25A, G26A, A27C, C28A, U29A, A30G
DNA 1: CAATCTGAATTCCGGTCTCCC
DNA 2: TGGTGGCTACGACGGGATT
B8: UGGAGUG (DNA:RNA)
RNA: B1 RNA with G25U, A27G, C28A, U29G, A30U, A31G
DNA 1: CAATCTGAATTCCGGTCTCCC
DNA 2: TGGTGGCTACGACGGGATT
B9: GUAAUGA (DNA:RNA)
RNA: B1 RNA with G26U, C28A, A30G
DNA 1: CAATCTGAATTCCGGTCTCCC
DNA 2: TGGTGGCTACGACGGGATT
B10: CGUGGGC (DNA:RNA)
RNA: B1 RNA with G25C, A27U, C28G, U29G, A30G, A31C
DNA 1: CAATCTGAATTCCGGTCTCCC
DNA 2: TGGTGGCTACGACGGGATT
B11: AAAGAGG (DNA:RNA)
RNA: B1 RNA with G25A, G26A, C28G, U29A, A30G, A31G
DNA 1: CAATCTGAATTCCGGTCTCCC
DNA 2: TGGTGGCTACGACGGGATT
B12: UUCACAA (DNA:RNA)
RNA: B1 RNA with G25U, G26U, A27C, C28A, U29C
DNA 1: CAATCTGAATTCCGGTCTCCC
DNA 2: TGGTGGCTACGACGGGATT
B13: UGUAGCG (DNA:RNA)
RNA: B1 RNA with G25U, A27U, C28A, U29G, A30C, A31G
DNA 1: CAATCTGAATTCCGGTCTCCC
DNA 2: TGGTGGCTACGACGGGATT
B14: CGUCAGC (DNA:RNA)
RNA: B1 RNA with G25C, A27U, U29A, A30G, A31C
DNA 1: CAATCTGAATTCCGGTCTCCC
DNA 2: TGGTGGCTACGACGGGATT
B15: AGACUUG (DNA:RNA)
RNA: B1 RNA with G25A, A30U, A31G
DNA 1: CAATCTGAATTCCGGTCTCCC
DNA 2: TGGTGGCTACGACGGGATT
B16: UAAGUAA (DNA:RNA)
RNA: B1 RNA with G25U, G26A, C28G
DNA 1: CAATCTGAATTCCGGTCTCCC
DNA 2: TGGTGGCTACGACGGGATT
B17: AGGGUCU (DNA:RNA)
RNA: B1 RNA with G25A, A27G, C28G, A30C, A31U
DNA 1: CAATCTGAATTCCGGTCTCCC
DNA 2: TGGTGGCTACGACGGGATT
B18: CGGGGCG (DNA:RNA)
RNA: B1 RNA with G25C, A27G, C28G, U29G, A30C, A31G
DNA 1: CAATCTGAATTCCGGTCTCCC
DNA 2: TGGTGGCTACGACGGGATT
B19: GUCCGGG (DNA:RNA)
RNA: B1 RNA with G26U, A27C, U29G, A30G, A31G
DNA 1: CAATCTGAATTCCGGTCTCCC
DNA 2: TGGTGGCTACGACGGGATT
B20: GGAAGCG (DNA:RNA)
RNA: B1 RNA with C28A, U29G, A30C, A31G
DNA 1: CAATCTGAATTCCGGTCTCCC
DNA 2: TGGTGGCTACGACGGGATT
B21: AUGUCUU (DNA:RNA)
RNA: GGGAGACCGGAAUUCAGAUUGUCCAUGUCUUUUAAAUCCCGUCGUAGCCACCA
DNA 1: CAATCTGAATTCCGGTCTCCC
DNA 2: TGGTGGCTACGACGGGATT
B22: GUCGAUC (DNA:RNA)
RNA: B21 RNA with A25G, G27C, U28G, C29A, U31C
DNA 1: CAATCTGAATTCCGGTCTCCC
DNA 2: TGGTGGCTACGACGGGATT
B23: UCUGGCC (DNA:RNA)
RNA: GGGAGACCGGAAUUCAGAUUGUCCUCUGGCCUUAAAUCCCGUCGUAGCCACCA
DNA 1: CAATCTGAATTCCGGTCTCCC
DNA 2: TGGTGGCTACGACGGGATT
B24: AUUUCUA (DNA:RNA)
RNA: B21 RNA with G27U, U31A
DNA 1: CAATCTGAATTCCGGTCTCCC
DNA 2: TGGTGGCTACGACGGGATT
B25: AGUUGGU (DNA:RNA)
RNA: B21 RNA with U26G, G27U, C29G, U30G
DNA 1: CAATCTGAATTCCGGTCTCCC
DNA 2: TGGTGGCTACGACGGGATT
B26: UGCCGAU (DNA:RNA)
RNA: B1 RNA with G25U, A27C, U29G, A31U
DNA 1: CAATCTGAATTCCGGTCTCCC
DNA 2: TGGTGGCTACGACGGGATT
B27: CCAAGCU (DNA:RNA)
RNA: B23 RNA with U25C, U27A, G28A, C31U
DNA 1: CAATCTGAATTCCGGTCTCCC
DNA 2: TGGTGGCTACGACGGGATT
B28: GUGCUCC (DNA:RNA)
RNA: B1 RNA with G26U, A27G, A30C, A31C
DNA 1: CAATCTGAATTCCGGTCTCCC
DNA 2: TGGTGGCTACGACGGGATT
B29: GCCCCAU (DNA:RNA)
RNA: B1 RNA with G26C, A27C, U29C, A31U
DNA 1: CAATCTGAATTCCGGTCTCCC
DNA 2: TGGTGGCTACGACGGGATT
B30: AUAGGUA (DNA:RNA)
RNA: B21 RNA with G27A, U28G, C29G, U31A
DNA 1: CAATCTGAATTCCGGTCTCCC
DNA 2: TGGTGGCTACGACGGGATT
B31: AUCAGGC (DNA:RNA)
RNA: B21 RNA with G27C, U28A, C29G, U30G, U31C
DNA 1: CAATCTGAATTCCGGTCTCCC
DNA 2: TGGTGGCTACGACGGGATT

Where a chain is given by its changes, count along the chain named. The list shows a part of the results.

In the experiment the target is T1, RBFOX1 RRM (Homo sapiens, UniProt Q9NWB1 109-208).
T1 sequence: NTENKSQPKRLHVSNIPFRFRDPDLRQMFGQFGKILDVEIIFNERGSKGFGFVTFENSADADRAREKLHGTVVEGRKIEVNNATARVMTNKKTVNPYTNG
Nature of the experiment: EMSA; HiTS-Eq, 1 nM pool, 10 min; buffer printed only for the single-RNA assays: 10 mM Tris pH 7.5, 150 mM NaCl, 3.4 mM EDTA, 0.001% NP-40, 30 C. As to conditions: tags: His6 N-terminal (pET28a); label: 5' 32P. Summed up: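 Purified wild-type or mutant RbFox RRM at increasing concentrations was equilibrated with 1 nM of 5′-radiolabelled RNA carrying 7 randomized nucleotides for 10 min in 50 µL. Unbound RNA was separated by 8% native PAGE and sequenced. Relative association constants came from read-count changes of each RNA species compared with the control reaction, normalised to the cognate motif.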
(In EMSA bound probe runs differently from free probe, usually more slowly.)
For the molecule B1, the binding signal is 0.00992 KA relative to UGCAUGU.

Take B2: the binding signal is 0.00772 KA relative to UGCAUGU.

Turning to B3, the binding signal was 0.0175 KA relative to UGCAUGU.

For the molecule B4, the binding signal was 0.00436 KA relative to UGCAUGU.

In the case of B5, the binding signal was 0.00679 KA relative to UGCAUGU.

On to B6, for which the binding signal is 0.0241 KA relative to UGCAUGU.

Consider B7, for which the binding signal is 0.00213 KA relative to UGCAUGU.

For B8, the binding signal is 0.0323 KA relative to UGCAUGU.

Consider B9, for which the binding signal was 0.0136 KA relative to UGCAUGU.

In the case of B10, the binding signal was 0.00926 KA relative to UGCAUGU.

As to B11, the binding signal was 0.00665 KA relative to UGCAUGU.

For B12, the binding signal was 0.00317 KA relative to UGCAUGU.

As for B13, the binding signal is 0.0149 KA relative to UGCAUGU.

Regarding B14, the binding signal is 0.0106 KA relative to UGCAUGU.

On to B15, for which the binding signal is 0.0166 KA relative to UGCAUGU.

With B16, the binding signal is 0.0096 KA relative to UGCAUGU.

For B17, the binding signal is 0.0254 KA relative to UGCAUGU.

In the case of B18, the binding signal was 0.0306 KA relative to UGCAUGU.

For the molecule B19, the binding signal is 0.00708 KA relative to UGCAUGU.

As to B20, the binding signal is 0.0177 KA relative to UGCAUGU.

For the molecule B21, the binding signal is 0.00976 KA relative to UGCAUGU.

For B22, the binding signal was 0.0161 KA relative to UGCAUGU.

For the molecule B23, the binding signal is 0.0211 KA relative to UGCAUGU.

As for B24, the binding signal was 0.00442 KA relative to UGCAUGU.

With B25, the binding signal is 0.016 KA relative to UGCAUGU.

Consider B26, for which the binding signal is 0.025 KA relative to UGCAUGU.

As for B27, the binding signal was 0.0041 KA relative to UGCAUGU.

B28: the binding signal is 0.0357 KA relative to UGCAUGU.

Consider B29, for which the binding signal was 0.00315 KA relative to UGCAUGU.

Turning to B30, the binding signal is 0.00676 KA relative to UGCAUGU.

As for B31, the binding signal is 0.00771 KA relative to UGCAUGU.

For the origin of these results see PMC9911399, “Two distinct binding modes provide the RNA-binding protein RbFox with extraordinary sequence specificity”.
